Among all 390,000 compounds or so, about 17,000 (4.4%) were called active. The shares of active, inactive and inconclusive entries below differ from those in the screen. The call rests on the fitted dose curve; in most records, active means well fitted inhibition curve with a large enough effect; inconclusive means small, poorly fitted or top-dose-only effect; inactive means no such curve, though single readings can be large or run the other way. A potency beside an inconclusive call is a rough fit, not a confirmed value.
target: Lysine-specific demethylase 4A (Homo sapiens) (UniProt O75164); assay: qHTS Assay for Inhibitors of JMJD2A-Tudor Domain; details: AlphaScreen JMJD2A-Tudor / H3K4me3 peptide binding; activity change, negative = inhibition: at 114 µM (top of the series); further: nearly all actives have a fitted effect of over 50% in size
Sequence of UniProt O75164 (O75164 whole entry, looked up, the tested form may be a part): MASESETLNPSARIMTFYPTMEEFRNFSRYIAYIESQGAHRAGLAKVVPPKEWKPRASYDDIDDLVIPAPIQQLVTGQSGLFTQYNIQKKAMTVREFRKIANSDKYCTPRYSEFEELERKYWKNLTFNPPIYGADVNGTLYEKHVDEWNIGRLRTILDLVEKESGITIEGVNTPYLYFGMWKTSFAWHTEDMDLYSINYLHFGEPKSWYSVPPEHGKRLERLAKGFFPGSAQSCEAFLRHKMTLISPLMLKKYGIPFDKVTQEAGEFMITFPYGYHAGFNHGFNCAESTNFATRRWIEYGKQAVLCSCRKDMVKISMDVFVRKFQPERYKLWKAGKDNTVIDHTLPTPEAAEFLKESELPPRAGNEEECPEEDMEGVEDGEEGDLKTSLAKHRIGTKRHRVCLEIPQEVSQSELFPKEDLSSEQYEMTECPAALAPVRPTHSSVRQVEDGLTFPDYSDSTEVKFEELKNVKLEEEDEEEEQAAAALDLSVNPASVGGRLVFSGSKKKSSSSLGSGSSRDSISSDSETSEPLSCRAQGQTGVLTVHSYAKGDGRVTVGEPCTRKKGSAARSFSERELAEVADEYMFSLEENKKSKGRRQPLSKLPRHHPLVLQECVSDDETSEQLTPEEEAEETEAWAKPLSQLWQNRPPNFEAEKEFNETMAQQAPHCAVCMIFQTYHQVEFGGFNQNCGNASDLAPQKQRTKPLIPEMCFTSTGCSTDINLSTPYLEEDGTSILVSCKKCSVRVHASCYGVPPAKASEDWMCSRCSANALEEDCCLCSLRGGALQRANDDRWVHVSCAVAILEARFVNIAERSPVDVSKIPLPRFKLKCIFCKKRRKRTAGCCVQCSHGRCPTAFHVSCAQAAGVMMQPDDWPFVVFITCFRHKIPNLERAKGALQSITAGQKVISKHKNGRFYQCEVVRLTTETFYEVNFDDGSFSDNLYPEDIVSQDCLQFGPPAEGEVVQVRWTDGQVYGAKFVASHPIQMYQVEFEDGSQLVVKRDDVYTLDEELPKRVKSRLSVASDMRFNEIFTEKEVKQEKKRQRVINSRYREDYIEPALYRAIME
On the % scale 0 is the no-effect control and ±100 the full control effect; potency means the concentration at half of the fitted maximal effect; tags describe the fitted curve by direction and shape.

Compound | Potency | activity change, negative = inhibition
Cc1noc(NS(=O)(=O)c2ccc(NC(=O)c3ccc(Cl)c(S(=O)(=O)N(C)c4ccccc4)c3)cc2)c1C | inconclusive: 50.1 µM [inhibitor, partial curve] | –
CC1=C(C(=O)Nc2ccccc2)C(c2ccc(C(=O)O)cc2)n2nc(SCC(=O)c3ccc(C)cc3)nc2N1 (stereo unspecified) | inconclusive: 79.4 µM [inhibitor, partial curve] | –
COc1ccccc1-c1nc(NC(C)=O)n[nH]1 | – | inactive: -11.1%
CCOC(=O)Cc1csc(N/N=C\c2ccc(N(C)C)cc2)n1 | active: 39.8 µM | –
Cc1ccc2[nH]c(=O)c3cc(C(=O)N(C)c4ccccc4C)sc3c2c1 | – | inactive: 6.8%
Cc1ccc(CN(C)C(=O)c2ccc(S(=O)(=O)N(C)c3ccccc3)cc2)o1 | inconclusive: 56.2 µM [inhibitor, partial curve] | –
c1ccc(-c2nnc(-c3c[nH]c4ccccc34)nc2-c2ccccc2)cc1 | inconclusive: 44.7 µM [inhibitor, partial curve] | –
CCN(CC(=O)NCc1ccc(F)cc1)C(=O)c1ccc2c(c1)OCO2 | – | inactive: -7.84%
CC(=O)N1N=C(c2cccc([N+](=O)[O-])c2)OC1c1ccc(Cl)cc1Cl (stereo unspecified) | inconclusive: 39.8 µM [inhibitor, partial curve] | –
O=C(CNc1cccc2ccccc12)N/N=C/c1ccc([N+](=O)[O-])o1 | inconclusive: 12.6 µM [inhibitor, partial curve] | –
Cc1cccc(C)c1-n1c(C)cc(/C=N/NC(=O)c2ccncc2)c1C | inconclusive: 63.1 µM [inhibitor, partial curve, poor fit] | –
O=C(c1cc2ccccc2oc1=O)N(Cc1ccccc1)C1CCS(=O)(=O)C1 (stereo unspecified) | – | inactive: 5.51%
c1ccc(Nc2scc(-c3ccccc3)[n+]2Cc2ccco2)cc1 | inconclusive: 39.8 µM [inhibitor, partial curve] | –
Cn1c(SCC(=O)Nc2ccc3c(c2)oc2ccccc23)nnc1-c1ccccc1 | inconclusive: 89.1 µM [inhibitor, partial curve] | –
CCOc1ccccc1/C=C(/NC(=O)c1ccccc1)C(=O)NC(C)c1ccccc1 (stereo unspecified) | – | inactive: -21.2%
Cc1cccc(Oc2nc3c(C)cccn3c(=O)c2/C=C(\C#N)c2nc3ccccc3s2)c1 | – | inactive: -8.93%
CCOc1ccc(N2CC(c3nc4ccccc4n3CCCOc3ccc(OC)cc3)CC2=O)cc1 (stereo unspecified) | inconclusive: 22.4 µM [inhibitor, full curve] | –
COc1ccc(Br)c2c1-c1nc(NC(=O)c3ccccc3SC)sc1C2 | inconclusive: 35.5 µM [inhibitor, partial curve] | –
COc1ccc(CNC(=O)C(C)OC(=O)CCN2C(=O)C3CC=CCC3C2=O)cc1 (stereo unspecified) | – | inactive: 0%
O=C(CSc1ccc(Cl)cc1)c1ccco1 | active: 79.4 µM | –
CC1CCCC(C)N1/N=C/c1ccccc1OC(F)F (stereo unspecified) | inconclusive: 56.2 µM [inhibitor, partial curve, poor fit] | –
COC(=O)c1ccc2nc(C)cc(Nc3ccc(O)cc3)c2c1 | – | inactive: -30.8%
CCOC(=O)c1cc(-c2ccc(F)cc2)n(CCC(=O)Nc2ccccc2OC)c1C | inconclusive: 31.6 µM [inhibitor, full curve, poor fit] | –
O=C(N=C1N=C2C=CC(Br)=CN2Cc2ccccc21)c1ccc([N+](=O)[O-])cc1[N+](=O)[O-] | inconclusive: 50.1 µM [inhibitor, partial curve] | –

Compound | Potency | activity change, negative = inhibition
COc1ccc(-c2cn[nH]c2-c2ccc(OCc3ccc(F)cc3)cc2O)cc1OC | inconclusive: 11.2 µM [inhibitor, single point] | –
COc1ccc(NC(=O)Cn2c(=O)n(-c3ccc(Cl)cc3)c(=O)c3c(C)c(C(=O)N(C)C)sc32)cc1Cl | – | inactive: -26.7%
CCC1(CC)C(=O)NC(=O)NC1=S | active: 50.1 µM | –
CCc1ccc(-n2c(C)nc3cc(C(=O)NCCc4ccccc4)ccc32)cc1 | – | inactive: -28.4%
CCOc1ccc(Nc2nc(Cc3nnc(SCC(=O)c4ccc(C)cc4)o3)cs2)cc1 | inconclusive: 7.08 µM [inhibitor, full curve] | –
C/C(=N\NC(=O)CC#N)C1COc2ccccc2O1 (stereo unspecified) | inconclusive: 25.1 µM [inhibitor, single point] | –
C#CCN(C[C@@H](CC(C)C)NC(=O)OC(C)(C)C)S(=O)(=O)c1ccc(Br)cc1F | inconclusive: 79.4 µM [inhibitor, partial curve] | –
CN(C)c1ccc(CN(CC2CCCO2)C(=O)COc2ccc(Cl)cc2)cc1 (stereo unspecified) | active: 44.7 µM | –
CC1(C)Cc2c(c(-c3ccccc3)nc3sc4c(=O)[nH]c(=S)[nH]c4c23)CO1 | inconclusive: 28.2 µM [inhibitor, partial curve] | –
COc1ccc(CN2C(=O)c3cccnc3C2=O)cc1S(=O)(=O)NC(C)C | inconclusive: 63.1 µM [inhibitor, partial curve] | –
Cc1cc(O)c(C(c2cccc(Cl)c2)N2CCN(c3ccccc3)CC2)c(=O)n1Cc1ccco1 (stereo unspecified) | – | inactive: -34.7%
CCN1/C(=C/c2ccc3ccc(C)cc3[n+]2CC)Sc2ccccc21 | active: 89.1 µM | –
COc1ccccc1N1CCN(C(=O)COc2cc(C)ccc2C)CC1 | active: 20 µM | –
CCCCC(=O)Nc1ccc(C(=O)NNC(=O)c2ccc(C)c(Br)c2)cc1 | active: 56.2 µM | –
COc1cc(CN(CCN(C)C)Cc2ccccc2)ccc1OCc1ccccc1 | active: 1 µM | –
CCN(CC)CCn1cnc2c([nH]c3cccc(OC)c32)c1=O | – | inactive: 5.64%
O=C(c1ccncc1)N1N=C(c2ccc(Cl)cc2)CC1c1ccccc1O (stereo unspecified) | inconclusive: 70.8 µM [inhibitor, partial curve, poor fit] | –
c1ccc(-c2noc(CN3CCN(c4cnccn4)CC3)n2)cc1 | inconclusive: 14.1 µM [inhibitor, full curve] | –
CN1CCN(C(=S)NC(=O)c2ccc(Cl)cc2)CC1 | inconclusive: 28.2 µM [inhibitor, partial curve] | –
COc1ccc2c(C)c(CC(=O)N3CCN(C(=O)C4COc5ccccc5O4)CC3)c(=O)oc2c1 (stereo unspecified) | inconclusive: 35.5 µM [inhibitor, full curve, poor fit] | –
CCn1cc(CN2CCCC(CO)(Cc3ccc(F)cc3)C2)c2ccccc21 (stereo unspecified) | inconclusive: 12.6 µM [inhibitor, partial curve, poor fit] | –
COc1cc2[nH]c(=S)nc(NCc3ccc(Cl)cc3)c2cc1OC | – | inactive: -21%
COc1ccccc1C=NN1CCCCCC1 | active: 44.7 µM | –
CCN1C(=O)/C(=C2\Sc3ccccc3N2CC)OC1=S | inconclusive: 25.1 µM [inhibitor, full curve, poor fit] | –

Compound | Potency | activity change, negative = inhibition
CCN(CC)c1nc2ccccc2c(N)c1-c1ccccc1 | inconclusive: 1.26 µM [inhibitor, full curve, poor fit] | –
CN1CCc2c(sc3c2C(=O)NC(c2cccc(OC(=O)c4cccs4)c2)N3)C1 (stereo unspecified) | inconclusive: 89.1 µM [inhibitor, single point] | –
Cc1cc(C)c2c(c1)N[C@H](c1cccs1)[C@@H]1CCO[C@H]21 | – | inactive: -9.79%
CCn1nc(NS(=O)(=O)c2ccccc2)c2cc3ccccc3nc21 | inconclusive: 15.8 µM [inhibitor, partial curve, poor fit] | –
O=C1CCN(CCc2ccccc2)CCN1[C@H](CSc1ccccc1)c1ccccc1 | inconclusive: 79.4 µM [inhibitor, partial curve] | –
Nc1cnccc1C(=O)O | inconclusive: 70.8 µM [inhibitor, single point] | –
Cc1cc(NC(c2cccnc2)c2ccc3cccnc3c2O)no1 (stereo unspecified) | active: 31.6 µM | –
Cc1cccc(Cn2c(C)c(C)c3cc(C(=O)NCc4ccc(C)o4)ccc32)c1 | inconclusive: 20 µM [inhibitor, full curve] | –
CCOc1ccc(NC(=O)CN2C(=O)C(c3ccccc3)=NC23CCCCCC3)cc1 | – | inactive: -12.4%
Fc1ccccc1OCCCN1CCOCC1 | active: 4.47 µM | –
Cc1cccc(CS(=O)(=O)Cc2ccc(C(=O)NCc3ccc(Cl)cc3)o2)c1 | – | inactive: 7.37%
COc1ccc(-c2cccc(NS(=O)(=O)c3cc(C)c(Cl)cc3C)c2)nn1 | – | inactive: -29.4%
CC1CCCN(S(=O)(=O)c2ccc(C(=O)Nc3nnc(C4CC4)o3)cc2)C1 (stereo unspecified) | inconclusive: 31.6 µM [inhibitor, partial curve, poor fit] | –
CCN1CCN(C(=S)NC(=O)c2cc(OC)c(OC)c(OC)c2)CC1 | inconclusive: 12.6 µM [inhibitor, partial curve] | –
COc1ccc(Br)cc1CN(C)CC(=O)Nc1cccc(S(=O)(=O)N2CCCC2)c1 | active: 25.1 µM | –
Cc1cccc(C(CC(=O)NCC2(c3ccccc3)CCCC2)c2ccccc2)c1O (stereo unspecified) | – | inactive: -5.84%
CCN(C(=O)NCc1noc2ccccc12)c1cc(C)ccc1C | – | inactive: -8.06%
COc1ccc(-c2nnc(SC(=O)N3c4ccccc4Sc4ccccc43)o2)cc1 | inconclusive: 63.1 µM [inhibitor, partial curve, poor fit] | –
CCOC(=O)c1c(C)[nH]c(C(=O)CSc2nnc(C3CC3)n2N)c1C | inconclusive: 39.8 µM [inhibitor, single point] | –
Cc1csc(NC(=O)C(Cc2ccccc2)n2cccc2)n1 (stereo unspecified) | inconclusive: 63.1 µM [inhibitor, partial curve, poor fit] | –
Cc1ccccc1NC(=O)NC(N)=O | inconclusive: 35.5 µM [inhibitor, partial curve] | –
CCOc1ccc(NS(=O)(=O)c2ccc(C(=O)N(C)Cc3cccc(OC)c3OC)cc2)cc1 | active: 89.1 µM | –
CCOc1ccc(S(=O)(=O)NCCC(=O)N2CCN(c3ccc(OC)cc3)CC2)cc1 | inconclusive: 56.2 µM [inhibitor, partial curve, poor fit] | –

From PubChem BioAssay AID504339 (National Center for Advancing Translational Sciences (NCATS), 2011)
